Assay results: the supplement of paper PMC3334620
In all, about 33,000 sequences were measured (“E-score (-0.5 to 0.5)”: median about -0.035, highest 2% from about 0.35 on). The list shows a part of the results.

Target: T1, Pdr3 (UniProt P33200)
T1 sequence: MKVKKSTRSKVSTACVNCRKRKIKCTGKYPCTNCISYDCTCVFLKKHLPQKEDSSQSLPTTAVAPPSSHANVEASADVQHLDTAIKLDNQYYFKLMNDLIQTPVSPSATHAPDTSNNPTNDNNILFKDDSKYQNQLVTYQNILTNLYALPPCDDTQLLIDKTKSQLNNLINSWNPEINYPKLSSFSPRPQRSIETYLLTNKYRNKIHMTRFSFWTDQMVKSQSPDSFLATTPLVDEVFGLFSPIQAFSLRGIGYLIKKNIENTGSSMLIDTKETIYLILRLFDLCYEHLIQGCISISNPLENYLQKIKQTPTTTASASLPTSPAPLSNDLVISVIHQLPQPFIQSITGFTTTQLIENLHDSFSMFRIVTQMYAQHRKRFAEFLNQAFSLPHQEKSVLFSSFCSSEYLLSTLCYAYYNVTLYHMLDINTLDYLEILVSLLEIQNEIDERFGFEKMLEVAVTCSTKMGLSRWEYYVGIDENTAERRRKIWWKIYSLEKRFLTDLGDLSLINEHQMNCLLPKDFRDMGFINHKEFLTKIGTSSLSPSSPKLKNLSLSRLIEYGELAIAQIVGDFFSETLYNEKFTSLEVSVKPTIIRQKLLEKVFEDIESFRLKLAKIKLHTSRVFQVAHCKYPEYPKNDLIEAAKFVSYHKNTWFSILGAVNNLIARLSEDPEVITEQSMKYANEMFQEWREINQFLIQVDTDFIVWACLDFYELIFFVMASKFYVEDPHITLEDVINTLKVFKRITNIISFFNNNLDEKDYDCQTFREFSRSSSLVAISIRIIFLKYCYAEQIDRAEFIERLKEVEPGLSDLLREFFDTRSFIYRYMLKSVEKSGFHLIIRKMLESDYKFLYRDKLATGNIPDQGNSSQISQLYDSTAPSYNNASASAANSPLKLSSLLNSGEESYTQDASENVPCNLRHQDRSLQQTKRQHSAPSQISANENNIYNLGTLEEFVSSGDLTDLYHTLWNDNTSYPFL
Assay: PBM E-score (8-mer binding enrichment) (E-score (-0.5 to 0.5)); higher = stronger / more preferred TF binding; most listed sequences are background and not binding sites
Conditions: protein concentration: 200 nM; construct: GST-full length
Procedure, shortened: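 Bound GST-tagged yeast transcription factors, applied at about 100-200 nM to double-stranded universal all-10-mer Agilent arrays, were detected with fluorescent anti-GST. Scans were normalised with masliner. A modified Wilcoxon-Mann-Whitney statistic, the E-score, was assigned to each ungapped eight-base word pooled with its reverse complement by the Universal PBM Analysis Suite.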

Compared with GAGGATAA, TACACATA is higher in “PBM E-score” value: -0.137 for the first, -0.0188 for the second.

Going from AGGTAGCG to AGGGCTGA, the “PBM E-score” value falls from -0.116 to -0.205.

Going from AGCAAGAG to GCATATGC, the “PBM E-score” value rises from -0.245 to -0.115.

Compared with ACGCCGGC, CAGGATGC is lower in “PBM E-score” value: 0.385 for the first, 0.0489 for the second.

Compared with AGCTGTGC, AAGCATGC is higher in “PBM E-score” value: -0.202 for the first, -0.172 for the second.

Compared with GAAAAGAA, AGGGCCGA is lower in “PBM E-score” value: 0.136 for the first, 0.0158 for the second.

First: CGGTAGCA
Second: ACGCGGCA
The “PBM E-score” value of the first is lower: -0.0781 for the first, 0.0238 for the second.

First: AATAGCCC
Second: ATTGGTTA
The “PBM E-score” value of the first is lower: -0.0859 for the first, 0.0538 for the second.

Compared with CGGAAATA, AACTGCTT is lower in “PBM E-score” value: 0.45 for the first, -0.134 for the second.

Compared with ACGCCGCG, TACGCGGA is lower in “PBM E-score” value: 0.265 for the first, 0.255 for the second.

Going from CGAAATTC to AAGTACCT, the “PBM E-score” value falls from 0.161 to -0.161.

First: ACGATCAC
Second: ATGCTGGC
The “PBM E-score” value of the first is higher: -0.107 for the first, -0.142 for the second.

Compared with AGAATGTA, CCCGAACA is higher in “PBM E-score” value: -0.168 for the first, 0.166 for the second.

First: GGTTGCAA
Second: ACTGATCC
The “PBM E-score” value of the first is higher: 0.0214 for the first, 0.00609 for the second.

Compared with AACCACCC, GACTATAA is lower in “PBM E-score” value: -0.00213 for the first, -0.132 for the second.

Going from CTGAAACC to AAACAAAT, the “PBM E-score” value falls from 0.136 to 0.00139.

Going from GCAAAACC to AATCACAG, the “PBM E-score” value falls from 0.0234 to -0.141.

Going from CAATTACG to CTACCGAC, the “PBM E-score” value rises from -0.167 to -0.0406.

First: GCCCAGCC
Second: AAAACGGT
The “PBM E-score” value of the first is higher: -0.00261 for the first, -0.151 for the second.

First: ATTTTGAC
Second: CGTCCCGA
The “PBM E-score” value of the first is lower: 0.0233 for the first, 0.199 for the second.

Going from CCCTAGAA to CAGAACGG, the “PBM E-score” value rises from -0.243 to 0.0368.

Compared with ACACGTAT, ATAGGTCA is lower in “PBM E-score” value: -0.116 for the first, -0.151 for the second.

Compared with AGGGGGTG, CGCCTGAA is higher in “PBM E-score” value: -0.145 for the first, 0.0126 for the second.

Going from GAATTTAC to ACAATGAC, the “PBM E-score” value falls from 0.00207 to -0.154.

Going from CTATTTCC to CAGACTGA, the “PBM E-score” value falls from 0.203 to -0.0851.

First: CACACCCC
Second: ACATACGT
The “PBM E-score” value of the first is higher: -0.0666 for the first, -0.159 for the second.

First: AATAACTG
Second: GCTCGAGC
The “PBM E-score” value of the first is lower: -0.0475 for the first, 0.236 for the second.

Going from ACAGGCTG to ACGGGAAA, the “PBM E-score” value rises from -0.268 to 0.277.

First: GACAAGGC
Second: GCCTTCGC
The “PBM E-score” value of the first is lower: -0.118 for the first, 0.138 for the second.

Going from CGTGCGAA to CCATATCC, the “PBM E-score” value rises from 0.0161 to 0.145.

First: AGGGCGAT
Second: TATATACA
The “PBM E-score” value of the first is lower: -0.24 for the first, -0.0274 for the second.

Going from ACCCGGCG to AGCAGACT, the “PBM E-score” value falls from 0.276 to -0.189.

Going from ACCCAAAA to CAAGGCAA, the “PBM E-score” value falls from -0.0452 to -0.188.

First: GGTACGTA
Second: ACATGTAT
The “PBM E-score” value of the first is lower: -0.155 for the first, -0.0119 for the second.

First: CGCAAGCA
Second: CGCCCTCA
The “PBM E-score” value of the first is higher: -0.0779 for the first, -0.196 for the second.

First: AGATGACC
Second: ATGAAGGC
The “PBM E-score” value of the first is lower: -0.0425 for the first, 0.114 for the second.

First: CTTAACCA
Second: TAAACGAA
The “PBM E-score” value of the first is lower: -0.141 for the first, -0.0987 for the second.

Going from ACGCGAAT to GGACTAGA, the “PBM E-score” value falls from 0.0758 to 0.0312.

Compared with AACTTCTT, CATGTGAC is lower in “PBM E-score” value: -0.139 for the first, -0.328 for the second.

Compared with AACATAGA, ACCGCAGG is higher in “PBM E-score” value: -0.00192 for the first, 0.134 for the second.

Compared with AACAATCT, AAGGTAAA is higher in “PBM E-score” value: -0.154 for the first, -0.0404 for the second.

First: ACCATTAT
Second: CGCGTCGC
The “PBM E-score” value of the first is lower: -0.103 for the first, 0.0878 for the second.

First: TGACATAA
Second: CACGATGG
The “PBM E-score” value of the first is higher: 0.0239 for the first, -0.012 for the second.

Going from AATGCGAG to GCACCTAA, the “PBM E-score” value falls from 0.0414 to -0.0848.

Going from AGTCGGTG to TATTAACA, the “PBM E-score” value rises from -0.0838 to 0.0492.

Compared with AGAAGTGG, GAACTCAA is higher in “PBM E-score” value: -0.055 for the first, -0.00987 for the second.

Going from CTGTGCTC to AATTTTGT, the “PBM E-score” value falls from 0.0296 to -0.0902.

Compared with AGCACGAC, AATTCAGC is higher in “PBM E-score” value: -0.093 for the first, 0.0247 for the second.

Compared with ATCCTGGC, CACAGTCC is lower in “PBM E-score” value: -0.0357 for the first, -0.0587 for the second.

Compared with GAAAGGGA, GCACTAAC is higher in “PBM E-score” value: -0.144 for the first, -0.0428 for the second.

First: AGCGGCTG
Second: AACTCTCG
The “PBM E-score” value of the first is lower: -0.0985 for the first, -0.0123 for the second.

Going from TGTGCTAA to GGACTTTA, the “PBM E-score” value falls from 0.217 to 0.137.

Compared with AACCTTAG, GGACCCGA is higher in “PBM E-score” value: -0.18 for the first, 0.286 for the second.

Going from GTGACAAA to TAAATACA, the “PBM E-score” value rises from -0.0355 to 0.0167.

First: TCGTGAAA
Second: ACCAACGG
The “PBM E-score” value of the first is lower: -0.141 for the first, 0.165 for the second.

Going from AGCGGTTG to CGGCAGAC, the “PBM E-score” value rises from -0.0205 to 0.181.

Going from AGCAGGGG to ATGGTGCC, the “PBM E-score” value rises from -0.0945 to 0.0575.

First: CCCCGCCA
Second: AGTATGCG
The “PBM E-score” value of the first is higher: 0.247 for the first, -0.0538 for the second.

Compared with CAGTTATG, AGGCGTCG is higher in “PBM E-score” value: -0.151 for the first, 0.135 for the second.

Compared with GCACCCGA, AAATAATA is lower in “PBM E-score” value: 0.222 for the first, 0.166 for the second.

Compared with AACGTGCT, AGACTTAT is lower in “PBM E-score” value: -0.213 for the first, -0.334 for the second.

Going from AACTCCTC to GCGGCATA, the “PBM E-score” value rises from -0.0525 to 0.16.

Going from GTTCAAGA to GCCTACCC, the “PBM E-score” value falls from -0.0184 to -0.155.

Compared with ATCGGAAA, GCCCTACC is lower in “PBM E-score” value: 0.407 for the first, -0.101 for the second.

Compared with CCGCCGTC, ATGGAGCA is lower in “PBM E-score” value: 0.168 for the first, -0.0361 for the second.

First: ATGGTGGG
Second: CGCGCAGA
The “PBM E-score” value of the first is lower: -0.126 for the first, 0.162 for the second.

First: TACTTACA
Second: TAATGAAA
The “PBM E-score” value of the first is lower: -0.216 for the first, -0.0901 for the second.

Going from AGGACATC to CAGGCGAG, the “PBM E-score” value falls from 0.178 to -0.125.

Going from ACCAGTGA to GAATTGAA, the “PBM E-score” value rises from -0.12 to 0.108.

Going from CTAGCCTC to AATCGGAC, the “PBM E-score” value rises from -0.162 to 0.212.

Going from CCACTGTA to ACTGAGCG, the “PBM E-score” value rises from -0.198 to -0.185.

First: GGCGTGAA
Second: CAGCGGCA
The “PBM E-score” value of the first is higher: 0.017 for the first, -0.0446 for the second.

Going from AAGTCCAC to GCGTATCA, the “PBM E-score” value rises from -0.215 to -0.0123.

Compared with TGACAGCA, CACACTAG is higher in “PBM E-score” value: -0.0493 for the first, 0.00957 for the second.

Going from ACGACGTG to GGCTACAA, the “PBM E-score” value rises from -0.26 to -0.0232.

First: ACGAATGA
Second: CGACTTGA
The “PBM E-score” value of the first is higher: 0.0936 for the first, -0.18 for the second.

Compared with CGCTCGTC, ACTGCACG is higher in “PBM E-score” value: -0.169 for the first, -0.0631 for the second.

Compared with GTTCTAAA, CGGAGTTA is higher in “PBM E-score” value: 0.0215 for the first, 0.33 for the second.

Going from TCGAGGAA to CCCCGAGA, the “PBM E-score” value rises from -0.0817 to 0.0629.

Compared with GCCTACAA, AACACTTG is lower in “PBM E-score” value: -0.0093 for the first, -0.0557 for the second.

First: ACGTTTCC
Second: CGTCCGCA
The “PBM E-score” value of the first is higher: 0.156 for the first, 0.0646 for the second.

Compared with GATGATTA, CGCTCCAA is lower in “PBM E-score” value: -0.0268 for the first, -0.0785 for the second.

First: AAAGCTGC
Second: ACCGGGCA
The “PBM E-score” value of the first is lower: -0.0314 for the first, 0.102 for the second.

Compared with ATGCCTCG, CATAAGAG is lower in “PBM E-score” value: -0.0591 for the first, -0.135 for the second.

First: AGAAGCTC
Second: AACGGTGG
The “PBM E-score” value of the first is higher: 0.103 for the first, -0.11 for the second.

First: AGAGAGGG
Second: CATGCAGC
The “PBM E-score” value of the first is lower: -0.154 for the first, -0.129 for the second.
